The record followed here is PubChem BioAssay AID1240 (Sanford-Burnham Center for Chemical Genomics, 2008).

Hit rate of the full screen: of about 50,000 compounds, about 800 (1.6%) showed an effect of 50% or more. Some of the results follow.

The assay addresses Bcl-2-like protein 10 (Homo sapiens) (UniProt Q9HD36). The assay is described as follows: TR3 peptide-Bcl-B binding displacers, biochemical primary FP assay, phenotype converters (AID 1240).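 Further: 0% = Bcl-B with tracer peptide and DMSO and 100% = tracer peptide lacking Bcl-B.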 To be noted: GST-Bcl-B / FITC-TR3 peptide fluorescence polarization; stronger effect = higher value; compound at 3.75 mg/L. (In general: Polarisation of emitted light reports the rotation of a fluorescent probe.)
Sequence of UniProt Q9HD36 (Q9HD36 whole entry, looked up): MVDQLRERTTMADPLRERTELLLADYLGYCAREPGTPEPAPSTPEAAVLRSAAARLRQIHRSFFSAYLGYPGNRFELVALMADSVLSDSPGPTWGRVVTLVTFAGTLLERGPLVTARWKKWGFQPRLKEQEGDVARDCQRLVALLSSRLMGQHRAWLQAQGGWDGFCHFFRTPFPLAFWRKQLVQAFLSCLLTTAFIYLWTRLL
As for `CC(C)c1cc(C=O)cc(C(C)C)c1O`, the displacement was -7.2%.

`O=C(Nc1ccc(Cl)cn1)c1cc(I)ccc1Cl`: the displacement turned out to be 13.6%.

For `C1=CC2CC1CC2CN1CCN(Cc2cccnc2)CC1` (stereo not drawn), the displacement was 6.3%.

Take `COCc1ccccc1P(=O)(c1ccccc1)c1ccccc1`: the displacement worked out at 5%.

As to `O=C(O)C1C2CCC(O2)C1C(=O)Nc1ccc2c(c1)OCCO2` (stereo not drawn), the displacement was -7.2%.

In the case of `O=C(/C=C/NNC(=O)c1ccccc1)c1ccccc1`, the displacement stood at 10%.

On to `O=C(Nc1ccccc1)c1ccccc1NC(=O)C(c1ccccc1)c1ccccc1`, for which the displacement turned out to be 11.3%.

On to `CS(=O)(=O)NCCNc1ccc([N+](=O)[O-])cc1Cl`, for which the displacement was -16.2%.

As for `Cc1ccc(OCC(=O)NNC(=O)c2ccc(Cl)cc2Cl)c(C)c1`, the displacement was -4.4%.

Turning to `C=CCN1C(=O)/C(=C/c2cccc(OCc3ccccc3Cl)c2)SC1=S`, the displacement was -4.4%.

Consider `O=[N+]([O-])c1cc(Cl)ccc1N1CCN(S(=O)(=O)c2ccc(Cl)cc2)CC1`, for which the displacement is -5.2%.

For `O=C(/C=C/c1ccccc1)Nc1ccc(N2CCCCC2)cc1`, the displacement stood at 2.3%.

`O=C(Nc1nc(-c2ccccc2)c(-c2ccccc2)s1)c1ccccc1F`: the displacement is 13.1%.

With `O=[N+]([O-])c1ccc(N2CCN(Cc3ccccc3)CC2)nc1`, the displacement was determined as 8.6%.

For `Cc1ccc(C)c(COc2ccc3ccc(=O)oc3c2)c1`, the displacement came out at 6.5%.

For `Cc1ccc2nsnc2c1NC(=O)c1cc2ccccc2o1`, the displacement was 6.6%.

As to `CCOC(=O)c1c(NC(=O)c2ccccc2OC)sc(C(=O)N2CCCCC2)c1C`, the displacement worked out at 4.1%.

Turning to `Brc1ccc(C=Nc2ccc(Oc3ccccc3)cc2)s1`, the displacement worked out at 2.2%.

In the case of `COc1cc([N+](=O)[O-])ccc1-c1ccc(/C=C2\C(=O)N(c3cccc(C(=O)O)c3)N=C2C)o1`, the displacement was -17.7%.

In the case of `CC(=O)Nc1nc(-c2cc(C)ccc2C)cs1`, the displacement amounted to 18.1%.

In the case of `Cc1sc2ncn(-c3ccc(Cl)cc3)c(=O)c2c1C`, the displacement is -1.5%.

As for `O=C(CCOc1ccccc1)Nc1ccccc1`, the displacement was 13.8%.

Take `CC(=O)NS(=O)(=O)c1ccc(NC(=O)C2CCCCC2)cc1`: the displacement is -16.1%.

For the molecule `O=C(CC(=O)c1ccccc1O)c1ccc(Br)cc1`, the displacement came out at 0.8%.

On to `Cc1cc(C)n(C(=O)C(C)Oc2ccc(Cl)cc2C)n1` (stereo not drawn), for which the displacement is -14%.

In the case of `Cc1ccc(S(=O)(=O)Oc2ccccc2/C=C2\SC(N)=NC2=O)cc1`, the displacement is -1%.

With `Cc1ccc(NC(=O)CCC(=O)N(CC(N)=O)CC(N)=O)cc1`, the displacement is -13.4%.

Regarding `Cc1cc(OCC(=O)NCC2CCCO2)ccc1Br` (stereo not drawn), the displacement stood at 0.7%.

`O=C(c1ccccc1Oc1ccccc1)N1CCN(c2ccc([N+](=O)[O-])cc2)CC1`: the displacement is 15.4%.

Regarding `CCCCc1nnc(NC(=O)Cc2ccccc2)s1`, the displacement is 6.3%.

Regarding `O=S(=O)(Nc1cccc(-c2cn3ccccc3n2)c1)c1ccc(-c2ccccc2)cc1`, the displacement is -5.7%.

`COc1cccc(NC2=C(Cl)C(=O)N(c3ccc(C)cc3C)C2=O)c1`: the displacement was determined as 8.5%.

In the case of `CN(C)/N=C/c1ccc(-c2ccc(Cl)c(C(=O)O)c2)o1`, the displacement turned out to be 8%.

In the case of `CSc1nnc2c(n1)OC(c1ccc(C)o1)Nc1ccccc1-2` (stereo not drawn), the displacement stood at 0.6%.

As to `Cc1ccc(Nc2nc(-c3ccc(-c4ccccc4)cc3)cs2)cc1`, the displacement is 0.1%.

Turning to `CC(=O)Nc1ccc(S(=O)(=O)N2CCN(c3ccc([N+](=O)[O-])cc3)CC2)cc1`, the displacement stood at 10.7%.

As to `O=C1/C(=C\c2ccccc2[N+](=O)[O-])SC(=S)N1c1ccc(F)cc1`, the displacement came out at 7.9%.

In the case of `Cc1c(Br)c([N+](=O)[O-])nn1CC(=O)N1CCc2ccccc2C1`, the displacement was determined as 10.5%.

For the molecule `CCN(CC)CCCCCCOc1ccc(Br)cc1`, the displacement turned out to be 13.1%.

Consider `CCC(Oc1ccccc1)C(=O)Nc1ccc(C)c([N+](=O)[O-])c1` (stereo not drawn), for which the displacement amounted to 4.8%.

As to `CCOC(=O)c1c(N)sc(C(=O)Nc2ccccc2OC)c1C`, the displacement was 0.8%.

As to `Cc1ccccc1-n1c(C)cc(/C=N/NC(=O)c2ccncc2)c1C`, the displacement was -24%.

For `CCCC(NC(=O)c1ccccc1)C(=O)OCC(=O)Nc1nnc(C)s1` (stereo not drawn), the displacement stood at 25.9%.

On to `C/C(=N\N=C1\NC(=O)C(CC(=O)NCc2ccccc2)S1)C(C)C` (stereo not drawn), for which the displacement turned out to be 0.3%.

For `CCN(CC)C(=O)C(=O)N/N=C/c1ccco1`, the displacement is 9.9%.

As to `NC(=O)c1ccc(N2CCOCC2)c([N+](=O)[O-])c1`, the displacement was found to be 2.3%.

Take `COc1cc(NC(=O)COc2ccc(Cl)cc2C)ccc1NC(=O)c1ccco1`: the displacement is -51%.

Take `Cc1ccc(OCCCNC(C)(C)C)c(C)c1`: the displacement was -3.4%.

Regarding `O=C(Nc1c[nH]c(=O)[nH]c1=O)c1ccc(Br)cc1`, the displacement stood at 12.4%.

For the molecule `C=CCON1C(=O)C(=O)N(OCC=C)C2CCCCC21` (stereo not drawn), the displacement was found to be 14.2%.

In the case of `Cc1onc(-c2ccccc2Cl)c1C(=O)N1CCN(C(=O)c2ccco2)CC1`, the displacement is -8.5%.

Take `CCC1CCc2c(sc(NC(=O)CCC(=O)O)c2C#N)C1` (stereo not drawn): the displacement was found to be 13.6%.

Regarding `CCOC(=O)N1CCN(c2nc(=S)n(-c3ccccc3)c(C)c2C(C)=O)CC1`, the displacement came out at 3.4%.

In the case of `CCOC(=O)CC(=O)c1[nH]c(C)c(C(=O)OCC)c1C`, the displacement was determined as 1.2%.

With `N#Cc1c2ncn(CC(=NO)c3ccccc3)c(=O)c2c2n1CCC2`, the displacement was -3.6%.

`O=S(=O)(c1ccc(Cl)cc1)N1CCN(Cc2ccccc2Cl)CC1`: the displacement is -12.8%.

Turning to `CCCOc1ccc(C(=O)Nc2ccc3oc(-c4cccnc4)nc3c2)cc1`, the displacement is 13.2%.

As for `CCOC(=O)c1c(-c2ccccc2)csc1NC(=O)c1ccccc1I`, the displacement is 10.1%.

Regarding `COc1ccc(-n2sc3c(c2=S)-c2cc(OC)ccc2NC3(C)C)cc1`, the displacement is 2.1%.

As for `Brc1cccc(-c2nc(-c3cccnc3)no2)c1`, the displacement is -7.2%.

Turning to `CCOC(=O)C1=C(C)N=c2s/c(=C\c3cc4c(cc3Cl)OCO4)c(=O)n2C1c1cccc(OC)c1` (stereo not drawn), the displacement amounted to 16.8%.

As for `CN(C)CCCNC(=O)c1c(Cl)cccc1Cl`, the displacement was found to be 11.4%.

On to `COC(=O)c1ccc(N2C(=O)c3ccccc3C2=O)cc1`, for which the displacement amounted to 1.6%.

`O=C(CCc1ccccc1)Nc1ccc(Cl)cc1`: the displacement turned out to be 5.7%.

With `CCC(CCC(=O)O)NC(=O)c1ccccc1` (stereo not drawn), the displacement was -4.8%.

As to `CC(C)COc1ccc(C(=O)Nc2ccc(Cl)c(Cl)c2)cc1`, the displacement stood at 2.1%.

Take `CC1=C/C(=N/OS(=O)(=O)c2ccccc2)C=CC1=O`: the displacement amounted to 28.6%.

In the case of `C/C(=N\NC(=O)c1cc(C(C)(C)C)[nH]n1)c1ccc(Cl)cc1`, the displacement was -14.9%.

For the molecule `COc1ccc(N=C(NOC(C)=O)c2ccc(Cl)cc2)c(OC)c1`, the displacement was 17%.

As to `O=C(NCc1cccnc1)C(c1ccccc1)c1ccccc1`, the displacement is -14.2%.

Take `O=C(c1ccccc1)N1CN2CN(C(=O)c3ccccc3)CC(NC(=S)Nc3ccccc3)(C2)C1`: the displacement is -22.4%.

With `O=C1c2ccc(Oc3ccc4c(c3)C(=O)N(CCCO)C4=O)cc2C(=O)N1CCCO`, the displacement was -6.5%.

For `COc1ccc(/C=C2/SC(=O)N(CNc3cc(F)ccc3C)C2=O)cc1OC`, the displacement came to 3.4%.

For `COc1ccc(-n2c(SC)nc3sc4c(c3c2=O)CCCC4)cc1`, the displacement is -1.5%.

Take `CCC(CO)Nc1cc(N2CCOCC2)ccc1[N+](=O)[O-]` (stereo not drawn): the displacement was found to be 10.9%.

As to `CC(=O)Oc1cc(N2CCOCC2)c(OC(C)=O)c2c1C(=O)c1ccccc1C2=O`, the displacement came out at 19.1%.

For `CC(=O)Nc1ccc(S(=O)(=O)Nc2ccc(F)cc2F)cc1`, the displacement turned out to be 2%.

Turning to `CCn1c2ccccc2c2cc(CNC(C)COC)ccc21` (stereo not drawn), the displacement turned out to be 6.3%.

For `O=C(O)CCCC(=O)Nc1nc(-c2ccc([N+](=O)[O-])cc2)cs1`, the displacement was -2.3%.

As for `S=C(NCC1(c2ccccc2)CCOCC1)Nc1ccccc1`, the displacement is -7.8%.

With `Cc1c(Nc2nc(-c3ccccc3)c(NC(=O)c3ccccc3)s2)c(=O)n(-c2ccccc2)n1C`, the displacement was determined as 3.1%.

Regarding `CCN(CC)c1ccc(/C=N/NC(=O)CSc2nc3ccccc3n2Cc2ccccc2)c(O)c1`, the displacement is 0.4%.

As to `COc1ccc(Br)cc1C(=O)Nc1ccc(Cl)cc1`, the displacement is 1.9%.

As for `CCOc1cc(C=C2C(=O)NC(=S)NC2=O)ccc1OCCOc1ccccc1C`, the displacement was -3.3%.

Turning to `N/C(=N\N=C\c1cccc(O)c1)c1nonc1N`, the displacement is -2.2%.

On to `Cc1ccc(C(=O)O/N=C(\N)Cc2cccs2)cc1[N+](=O)[O-]`, for which the displacement was 1.6%.

Take `COC(=O)C1=C(C)NC(C)=C(C(=O)OC)C1c1ccc(OCC(N)=O)cc1`: the displacement was 8.6%.

For the molecule `Cc1cccnc1NC(=O)COc1ccc2ccccc2c1`, the displacement was -0.5%.

For the molecule `O=C(Nc1ccc(F)c([N+](=O)[O-])c1)C1CCCC1`, the displacement was -8.3%.

For the molecule `CC(=O)Oc1c(-c2ccccc2)c2nc3ccccc3nc2c2ccccc12`, the displacement was determined as 18.9%.

With `CC(=O)c1ccc(NC(=O)C2CC(=O)N(C3CCCCC3)C2)cc1` (stereo not drawn), the displacement is 11.1%.

Turning to `Oc1[nH]c2ccc(Br)cc2c1N=Nc1ccc2ccccc2n1`, the displacement was determined as 1.8%.

For `COc1cccc(/C=C2\SC(=S)N(C)C2=O)c1O`, the displacement turned out to be 11%.

For the molecule `CC1(C)CC(=O)c2sc(NC(=O)c3ccccc3)nc2C1`, the displacement was -15%.

For `COC(=O)c1cc(C(=O)N2CCN(c3ccccc3OC)CC2)cc([N+](=O)[O-])c1`, the displacement is 0.7%.

`NC(=O)C1C(=O)Oc2ccccc2C1=O` (stereo not drawn): the displacement is -6.7%.

For the molecule `COc1ccc(C(=O)CSc2nnc(SCC(=O)c3ccc(OC)cc3)n2-c2ccccc2)cc1`, the displacement stood at 10.4%.

For the molecule `O=C(Nc1cccc(Br)c1)c1ccccc1`, the displacement came to 5.2%.

For `CCCCOc1cccc(C(=O)Nc2ccc(N(CC)CC)cc2)c1`, the displacement came out at 1.2%.

Regarding `CNC(=O)c1ccc(CN2CCN(Cc3ccccc3)CC2)cc1`, the displacement worked out at 0%.

Turning to `C/C(=N\N=C1/NC(=O)C(C)S1)c1ccc(Br)cc1` (stereo not drawn), the displacement was 5.2%.

Take `O=C(Nc1cccc2nsnc12)c1ccc(-c2cccc(Cl)c2)o1`: the displacement came to 3.4%.

As for `CCc1ccc(NC(=O)C(=O)NCCCOC(C)C)cc1`, the displacement was 4.5%.

In the case of `CC(C)(C)c1cc(S(N)(=O)=O)c2cc(C(C)(C)C)cc(S(N)(=O)=O)c2c1`, the displacement stood at 15.4%.

For `Cc1cc(C)cc(NC(=O)COc2cccc(C)c2C)c1`, the displacement was found to be 1.9%.

For the molecule `N=Cc1c(O)n(-c2c(Cl)cccc2Cl)c2ccc([N+](=O)[O-])cc12`, the displacement was 12.3%.

Regarding `O=C1CC(N2CCN(c3ccccc3)CC2)C(=O)N1c1ccc(F)cc1` (stereo not drawn), the displacement is 1.4%.

For `C#CCSc1nncn1C(=O)/C=C/c1ccco1`, the displacement is -22.6%.

For the molecule `O=C(Cc1ccccc1)Nc1cccc(NC(=O)c2ccc(Cl)cc2Cl)c1`, the displacement was -14.6%.

`CC(C)c1ccc(/C=C/C(=O)Nc2sc3c(c2C(N)=O)CCCC3)cc1`: the displacement was determined as 3.2%.

Consider `CCOc1ccc(/C=C2\C(=O)NC(=S)N(c3ccc(F)cc3)C2=O)cc1OC`, for which the displacement is -8%.

Regarding `COc1ccc2c(c1[N+](=O)[O-])CCC/C2=N/OC(=O)c1ccccc1SC`, the displacement worked out at 12.7%.

As for `Cc1c(-n2c(CN3C(=O)c4ccccc4C3=O)nc3ccccc3c2=O)c(=O)n(-c2ccccc2)n1C`, the displacement is 3.2%.
